# Source: the supplement of paper PMC8728848
# The list shows a part of the results.
# What was measured:
# Test in all cases: glycan array binding signal (z-score within array); higher = stronger binding
# Settings in all cases: glycan notation: IUPAC condensed, linker removed
# [1] = biological target: Gal(b1-3)GlcNAc(b1-2)Man(a1-3)[GlcNAc(b1-4)][Gal(b1-3)GlcNAc(b1-2)Man(a1-6)]Man(b1-4)GlcNAc(b1-4)GlcNAc
# How it was run: (§1)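 The binding signal is a Z-score computed within each array. Data were drawn from 3228 arrays in the Consortium for Functional Glycomics database, restricted to those with a known protein sequence. Scores were averaged over arrays of the same protein sequence at different concentrations or buffers, and over linkers, and negative values can be taken as non-binding.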
# [2] = biological target: Gal(b1-3)GlcNAc(b1-2)[Gal(b1-3)GlcNAc(b1-6)]Man(a1-6)[Gal(b1-3)GlcNAc(b1-2)Man(a1-3)]Man(b1-4)GlcNAc(b1-4)GlcNAc
# How it was run: as §1
# [3] = biological target: Gal(b1-3)GlcNAc(b1-3)Gal(b1-3)GlcNAc
# How it was run: as §1
# [4] = biological target: Gal(b1-3)GlcNAc(b1-3)Gal(b1-4)Glc
# How it was run: as §1
# [5] = biological target: Gal(b1-3)GlcNAc(b1-3)Gal(b1-4)GlcNAc
# How it was run: as §1
# [6] = biological target: Gal(b1-3)GlcNAc(b1-3)Gal(b1-4)GlcNAc(b1-2)Man(a1-3)[Gal(b1-3)GlcNAc(b1-3)Gal(b1-4)GlcNAc(b1-2)Man(a1-6)]Man(b1-4)GlcNAc(b1-4)GlcNAc
# How it was run: as §1
# [7] = biological target: Gal(b1-3)GlcNAc(b1-3)Gal(b1-4)GlcNAc(b1-2)[Gal(b1-3)GlcNAc(b1-3)Gal(b1-4)GlcNAc(b1-6)]Man(a1-6)[Gal(b1-3)GlcNAc(b1-3)Gal(b1-4)GlcNAc(b1-2)Man(a1-3)]Man(b1-4)GlcNAc(b1-4)[Fuc(a1-6)]GlcNAc
# How it was run: as §1
# [8] = biological target: Gal(b1-3)GlcNAc(b1-3)Gal(b1-4)GlcNAc(b1-3)Gal(b1-4)GlcNAc(b1-2)[Gal(b1-3)GlcNAc(b1-3)Gal(b1-4)GlcNAc(b1-3)Gal(b1-4)GlcNAc(b1-6)]Man(a1-6)[Gal(b1-3)GlcNAc(b1-3)Gal(b1-4)GlcNAc(b1-3)Gal(b1-4)GlcNAc(b1-2)Man(a1-3)]Man(b1-4)GlcNAc(b1-4)[Fuc(a1-6)]GlcNAc
# How it was run: as §1
# [9] = biological target: Gal(b1-3)GlcNAc(b1-3)Gal(b1-4)GlcNAc(b1-6)[Gal(b1-3)GlcNAc(b1-3)]Gal(b1-4)Glc
# How it was run: as §1
# [10] = biological target: Gal(b1-3)GlcNAc(b1-3)Gal(b1-4)[Fuc(a1-3)]GlcNAc
# How it was run: as §1
# [11] = biological target: Gal(b1-3)GlcNAc(b1-3)Gal(b1-4)[Fuc(a1-3)]GlcNAc(b1-6)[Gal(b1-3)GlcNAc(b1-3)]Gal(b1-4)Glc
# How it was run: as §1
# [12] = biological target: Gal(b1-3)GlcNAc(b1-3)GalNAc
# How it was run: as §1
# [13] = biological target: Gal(b1-3)GlcNAc(b1-6)Gal(b1-4)GlcNAc
# How it was run: as §1
# [14] = biological target: Gal(b1-3)GlcNAc(b1-6)GalNAc
# How it was run: as §1
# [15] = biological target: Gal(b1-3)GlcNAc(b1-6)[Gal(b1-3)]GalNAc
# How it was run: as §1
# Gal(b1-3)GlcNAc6S = biological target: Gal(b1-3)GlcNAc6S
# How it was run: as §1
# [16] = biological target: Gal(b1-3)[Fuc(a1-4)]GlcNAc
# How it was run: as §1
# [17] = biological target: Gal(b1-3)[Fuc(a1-4)]GlcNAc(b1-2)Man
# How it was run: as §1
# [18] = biological target: Gal(b1-3)[Fuc(a1-4)]GlcNAc(b1-2)Man(a1-3)[Gal(b1-3)[Fuc(a1-4)]GlcNAc(b1-2)Man(a1-6)]Man(b1-4)GlcNAc(b1-4)[Fuc(a1-6)]GlcNAc
# How it was run: as §1
# [19] = biological target: Gal(b1-3)[Fuc(a1-4)]GlcNAc(b1-3)Gal(b1-3)[Fuc(a1-4)]GlcNAc
# How it was run: as §1
# [20] = biological target: Gal(b1-3)[Fuc(a1-4)]GlcNAc(b1-3)Gal(b1-4)[Fuc(a1-3)]GlcNAc
# How it was run: as §1
# [21] = biological target: Gal(b1-3)[Fuc(a1-4)]GlcNAc(b1-6)GalNAc
# How it was run: as §1
# [22] = biological target: Gal(b1-3)[GlcNAc(b1-6)]GalNAc
# How it was run: as §1
# [23] = biological target: Gal(b1-3)[Neu5Ac(a2-6)]GalNAc
# How it was run: as §1
# [24] = biological target: Gal(b1-3)[Neu5Ac(a2-6)]GlcNAc(b1-4)Gal(b1-4)Glc
# How it was run: as §1
# [25] = biological target: Gal(b1-3)[Neu5Ac(b2-6)]GalNAc
# How it was run: as §1
# Gal(b1-4)Gal = biological target: Gal(b1-4)Gal
# How it was run: as §1
# [26] = biological target: Gal(b1-4)GalNAc(a1-3)[Fuc(a1-2)]Gal(b1-4)GlcNAc
# How it was run: as §1
# [27] = biological target: Gal(b1-4)GalNAc(b1-3)[Fuc(a1-2)]Gal(b1-4)GlcNAc
# How it was run: as §1
# Gal(b1-4)Glc = biological target: Gal(b1-4)Glc
# How it was run: as §1
binder,measurement,setting,value
Pbx2 (Cryptococcus neoformans) (protein) AVSPLPSSTELVFYSQKRRRRRICSTATGSLSTPDPTRMTSDPYKRVGMRFSSVPRLLITFLSLLLLVSAAPPCVRFADYDSINQMFIDGGPGTKVLLCPNRLYRLSGPIIFTAADQEIATYGYPTGSERAVLRVEGRNTATAIQGDCRRCARVSVKNLVVDGNRKKLGRMRDFQLATGLVVLGGNEGQSIQNSWIKNPRGFTAIHIREGDKLQCSGARVEKNEIGPVGEEYDPEKDGDDPEMSPLGRPLADGVSIACRDSFIRDNTFRDNTDAAIVVYCSPGTLIHANHIFAQSLSAMAGILMVDSTPFNGDYTGTVVRSNIIDAVSRTIRVGIGIGPTVWSDDTETILTGGSVIGNGLKGRYMGYGIAAAGLKQWTIKDNWDEAKHEGRKSARCFDEPVNPDPIGLLYNRPTMEDCTVQSGFADHDFQYLVCIDGLYDKTNPPKHDPAPLAHDPSPTNAQEDNTVQQDGGDSKSKSIEQPREASDIEAEPSVEKMFSTGSEMMDDVLEHSHQRMHEVIDHLSRRIDILGAASAGKGSGDSKISEVLDPAMSSHLEKLQRKIEHLEFSLRSQIETAIQLRSAIQGWDQEMALVTDWEYDILLDVRHKLELSSYPHDQPLDPRLMRGQSYLNNEAVLVDDHSHPSLEGENLRAMSDRARLNANEEA,glycan array binding signal (z-score),[1],0.625
same,glycan array binding signal (z-score),[2],-0.131
same,glycan array binding signal (z-score),[3],-0.343
same,glycan array binding signal (z-score),[4],-0.314
same,glycan array binding signal (z-score),[5],-0.583
same,glycan array binding signal (z-score),[6],-0.266
same,glycan array binding signal (z-score),[7],0.251
same,glycan array binding signal (z-score),[8],1.58
same,glycan array binding signal (z-score),[9],-0.258
same,glycan array binding signal (z-score),[10],0.518
same,glycan array binding signal (z-score),[11],-0.346
same,glycan array binding signal (z-score),[12],0.091
same,glycan array binding signal (z-score),[13],-0.224
same,glycan array binding signal (z-score),[14],0.462
same,glycan array binding signal (z-score),[15],-0.178
same,glycan array binding signal (z-score),Gal(b1-3)GlcNAc6S,0.443
same,glycan array binding signal (z-score),[16],-0.254
same,glycan array binding signal (z-score),[17],0.503
same,glycan array binding signal (z-score),[18],-0.088
same,glycan array binding signal (z-score),[19],-0.63
same,glycan array binding signal (z-score),[20],-0.432
same,glycan array binding signal (z-score),[21],0.635
same,glycan array binding signal (z-score),[22],-0.302
same,glycan array binding signal (z-score),[23],-0.416
same,glycan array binding signal (z-score),[24],-0.058
same,glycan array binding signal (z-score),[25],-0.192
same,glycan array binding signal (z-score),Gal(b1-4)Gal,0.651
same,glycan array binding signal (z-score),[26],-0.609
same,glycan array binding signal (z-score),[27],-0.636
same,glycan array binding signal (z-score),Gal(b1-4)Glc,-0.114
